According to PubChem BioAssay AID588855 (National Center for Advancing Translational Sciences (NCATS), 2011):
Hit rate of the full screen: of about 410,000 compounds, about 5,000 (1.2%) were called active. Inconclusive means that the source gave no clear call. Such entries were picked first, then a sample of the others. Calls come from the whole dose curve; as a rule, active = well fitted inhibition curve with a large enough effect; inconclusive = small, poorly fitted or top-dose-only effect; inactive = no such curve, though single readings can be large or run the other way. Potencies beside an inconclusive call are fits to weak or partial responses and may not hold up.

assay: qHTS for Inhibitors of TGF-b; conditions: HepG2 CAGA-GFP TGF-b/SMAD3 reporter, GFP fluorescence, 18 h, TGF-beta stimulated, 500 pg/mL final; series mostly up to 46.1 µM; activity, negative = inhibition: at the top concentration; note: nearly all actives have a fitted effect of over 65% in size
Outline: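 Inhibition of TGF-beta-driven CAGA-GFP reporter expression in HEPG2 cells is measured by cellular GFP fluorescence after 18 h stimulation with 500 pg/mL recombinant TGF-beta in 1% FBS medium at 37 degrees C.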
% is set by controls: 0 for no effect and ±100 for the full control effect; potency is the fitted concentration of half-maximal effect; tags give direction and shape of the fitted curve.

| Compound | activity, negative = inhibition | Potency |
| --- | --- | --- |
| COC(=O)C1=CN(C(C)C)C=C(C(=O)OC)C1c1cccc(OC)c1 | inactive: 5.27% |  |
| C=CCOc1ccc(CN(C)C(=O)CNC(=O)c2ccc(-c3ccccc3)cc2)cc1 |  | inconclusive: 7.94 µM [inhibitor, partial curve] |
| CN1CCN(C2Cc3ccc(F)cc3Sc3cc(F)c(Cl)cc32)CC1 (stereo not drawn) |  | inconclusive: 35.5 µM [inhibitor, single point] |
| COCCNC(=O)/C(C#N)=C/c1cccc(/C=C(\C#N)C(=O)NCCOC)c1 |  | inconclusive: 35.5 µM [inhibitor, single point] |
| CCOC(=O)Cc1csc(NC(=O)c2c(C)noc2C)n1 | inactive: -11.2% |  |
| C[C@H](CO)N1C[C@H](C)[C@@H](CN(C)Cc2ccc3c(c2)OCO3)Oc2c(NS(=O)(=O)c3cn(C)cn3)cccc2C1=O |  | inconclusive: 0.891 µM [inhibitor, full curve] |
| COc1cc(Br)ccc1C1CC(=O)C(C)C(c2ccc(Br)cc2OC)N1 (stereo not drawn) | inactive: -8.78% |  |
| Cc1cc(C)c(NC(=O)CSc2nnc3[nH]c(=O)cc(C)n23)c(C)c1 | inactive: -1.03% |  |
| O=S(=O)(NCCSCc1c(Cl)cccc1Cl)c1ccc2c(c1)OCCO2 |  | inconclusive: 1.58 µM [inhibitor, full curve, poor fit] |
| O=c1cnc2ccccc2n1Cc1ccccc1C(F)(F)F | inactive: -3.98% |  |
| c1ccc(-c2cc(-c3nc4ccccc4[nH]3)c3ccccc3n2)cc1 |  | inconclusive: 11.2 µM [inhibitor, partial curve] |
| Cc1ccc(C(=O)c2c(NC(=O)c3ccncc3)sc3c2CCCC3)cc1 |  | inconclusive: 22.4 µM [inhibitor, single point] |
| CCC(=O)Nc1ccc2nc(SCC(=O)N3CCc4ccccc43)sc2c1 |  | inconclusive: 8.91 µM [inhibitor, partial curve] |
| CC1CCN(S(=O)(=O)c2ccc(NC(=O)c3ccncc3)cc2)CC1 |  | inconclusive: 3.98 µM [inhibitor, full curve, poor fit] |
| COc1ccc(Cl)cc1Nc1ncnc2c1nc1n2CCCC1 | inactive: -18.4% |  |
| COC(=O)c1sc2nc(CSc3ccc(Br)cc3)[nH]c(=O)c2c1C | inactive: -24.1% |  |
| Clc1ccc(CSc2nnc(-c3sccc3-n3cccc3)o2)cc1 |  | inconclusive: 3.55 µM [inhibitor, single point] |
| Cc1cc(N(C)C)ccc1N=Nc1ccc(N)cc1 | inactive: -0.125% |  |
| O=S(=O)(NC1=NCCCCC1)c1ccc2sc(NS(=O)(=O)c3ccc4ccccc4c3)nc2c1 |  | inconclusive: 15.8 µM [inhibitor, partial curve, poor fit] |
| COC(=O)c1c(NC(=O)C2CC=CCC2C(=O)O)sc(C)c1C (stereo not drawn) |  | inconclusive: 5.01 µM [inhibitor, full curve] |
| COc1cccc(C=O)c1OCCCOc1cccc2cccnc12 |  | inconclusive: 35.5 µM [inhibitor, single point] |
| Cc1cc(=O)n2c(C(=O)Nc3ccc(C(=O)OC(C)C)cc3)c(C(=O)Nc3ccccc3)sc2n1 |  | inconclusive: 17.8 µM [inhibitor, single point] |
| Cc1nc2sc(C(=O)OCC(=O)N3c4ccccc4CC3C)c(C)c2c(=O)[nH]1 (stereo not drawn) |  | inconclusive: 1 µM [inhibitor, full curve, poor fit] |

| Compound | activity, negative = inhibition | Potency |
| --- | --- | --- |
| O=C(NCc1ccc(F)c(F)c1)c1ccc(-c2ccc(F)c(F)c2)c2ccoc12 | inactive: -32% |  |
| CCCc1nc2c(s1)CCc1onc(-c3cccc([N+](=O)[O-])c3)c1-2 | inactive: 4.64% |  |
| COc1cc(C(=O)N2CCN(c3ccc([N+](=O)[O-])cc3)CC2)ccc1OCc1c(C)noc1C | inactive: -14.8% |  |
| COc1ccc(C2NC(=O)C(C#N)=C(S)N2c2ccc(C)cc2)cc1OC (stereo not drawn) |  | inconclusive: 8.91 µM [inhibitor, partial curve, poor fit] |
| NCCc1nc(-c2ccccc2)cs1 | inactive: 14.3% |  |
| COc1cc(C(=O)Nc2nc(-c3cc(C)ccc3C)c(C)s2)ccc1OCC(=O)Nc1ccc(F)cc1 |  | inconclusive: 3.16 µM [inhibitor, full curve, poor fit] |
| Cc1cc(C)n(-c2nc(NCCO)c3c4c(sc3n2)CCCC4)n1 |  | inconclusive: 10 µM [inhibitor, partial curve] |
| CN(CCOc1ccccc1)C(=O)c1ccc(Cl)c(S(=O)(=O)N2CCCCC2)c1 |  | inconclusive: 22.4 µM [inhibitor, single point] |
| Cc1cc(NC(=S)N(Cc2ccc(Br)cc2)Cc2ccc(C(=O)O)cc2)ccc1Cl |  | inconclusive: 28.2 µM [inhibitor, single point] |
| CCOC(=O)C(C)(C)N(Cc1cccc(C)c1)S(=O)(=O)c1ccc(Cl)c([N+](=O)[O-])c1 |  | inconclusive: 35.5 µM [inhibitor, single point] |
| CCOC(=O)c1cnc(SC)nc1Oc1cccc(NC(=O)c2ccc(Cl)cc2)c1 | inactive: 0% |  |
| Cc1ccc2oc(=O)n(CCNC(=O)Nc3ccccc3Cl)c2c1 |  | inconclusive: 35.5 µM [inhibitor, partial curve, poor fit] |
| NC(=O)CC(NC(=O)Cc1ccc(Cl)cc1)c1ccc(NCCOc2ccccc2)c([N+](=O)[O-])c1 (stereo not drawn) |  | inconclusive: 22.4 µM [inhibitor, single point] |
| O=C(c1ccccc1)c1ccccn1 | inactive: -1.06% |  |
| S=C(NCCN(C1CCCCC1)C1CCCC1)Nc1cccc(Cl)c1 |  | inconclusive: 22.4 µM [inhibitor, single point] |
| O=C(OCc1ccccc1)/C(=C/c1ccccc1Cl)NC(=O)c1ccco1 |  | inconclusive: 35.5 µM [inhibitor, single point] |
| Cc1cc(C2(c3ccc(O)c(C)c3)C(=O)N(C)c3ccc(Br)cc32)ccc1O |  | inconclusive: 17.8 µM [inhibitor, partial curve, poor fit] |
| COc1ccccc1N(CC(N)=O)S(=O)(=O)c1ccc(C)cc1 | inactive: 17.3% |  |
| COc1cc(NC(=O)CCCc2c[nH]c3ccccc23)cc(OC)c1 | inactive: -15.7% |  |
| Cc1ccc2c(CC(=O)Nc3cc(C(F)(F)F)ccc3Cl)coc2c1C |  | inconclusive: 12.6 µM [inhibitor, partial curve, poor fit] |
| CC(=O)Nc1ccc(S(=O)(=O)N2CCN(Cc3csc(C)n3)CC2)cc1 |  | inconclusive: 35.5 µM [inhibitor, single point] |
| O=C(O)Cc1ccc(NC(=S)NCc2ccco2)cc1 | inactive: 8.16% |  |
| NC(N)=NCC(O)CN(c1ccccc1)c1ccccc1 (stereo not drawn) | inactive: 4.3% |  |

| Compound | activity, negative = inhibition | Potency |
| --- | --- | --- |
| CCCCCCn1c(CN2CCC(C)CC2)nc2c1c(=O)n(C)c(=O)n2C | inactive: -14.7% |  |
| CN1C(=O)/C(=C/c2cccc(Cl)c2)Sc2ccc(C(=O)NCc3cccnc3)cc21 |  | inconclusive: 20 µM [inhibitor, partial curve, poor fit] |
| COc1cc(/C=N/NC(=O)c2ccc(Cn3cc([N+](=O)[O-])cn3)o2)cc(Br)c1O |  | active: 15.8 µM |
| Cc1ccc(-c2noc(C3CCN(S(=O)(=O)c4ccc5c(c4)OCCO5)CC3)n2)o1 | inactive: -16.7% |  |
| Cc1cc(=O)[nH]c(-n2nc(C)cc2C)n1 | inactive: -8.8% |  |
| CC[C@@H](NCCCn1ccc(NC(=O)OCc2ccccc2)nc1=O)c1ccccc1 | inactive: -0.837% |  |
| CC(=O)Nc1ccc(S(=O)(=O)/N=C2\C(=O)c3ccccc3C([O-])=C2n2cc[n+](-c3ccccn3)c2)cc1 |  | inconclusive: 35.5 µM [inhibitor, single point] |
| Cc1sc(NC(=O)c2ccco2)c(C(c2ccc(F)cc2)N2CCN(C)CC2)c1C (stereo not drawn) |  | active: 15.8 µM |
| Cc1ccc(NC(=S)N(CCN2CCOCC2)Cc2ccccc2F)cc1Cl | inactive: 10.4% |  |
| CCc1nn(CCCC(=O)NC2CCCCC2C)c(=O)c2cc3occc3n12 (stereo not drawn) |  | inconclusive: 17.8 µM [inhibitor, single point] |
| CCOC(=O)C1=CC[C@@H](c2ccccc2)N(S(=O)(=O)c2ccc(C)cc2)[C@H]1C |  | inconclusive: 17.8 µM [inhibitor, single point] |
| CCN(CC)S(=O)(=O)c1ccc(S(=O)(=O)Nc2ccc3c(c2)oc2ccccc23)cc1 |  | inconclusive: 35.5 µM [inhibitor, single point] |
| Cc1cc(-c2ccc(C)c(S(=O)(=O)NCc3ccc(Cl)cc3)c2)on1 |  | inconclusive: 11.2 µM [inhibitor, partial curve] |
| Cc1ncc(CO)c2c1Oc1nc(-c3ccccc3)nc(SCC(=O)Nc3cccc(O)c3)c1C2 |  | active: 12.6 µM |
| CCCCCCn1c(=O)n2n(c1=O)[C@@H]1CN(S(=O)(=O)c3ccc(C)cc3)C[C@]1(O)[C@@H](OC(=O)NCc1ccc(OC)c(OC)c1)C2 |  | inconclusive: 11.2 µM [inhibitor, partial curve, poor fit] |
| CN(Cc1ccccc1)c1ncnc2c1nc1n2CCCC1 |  | inconclusive: 35.5 µM [inhibitor, single point] |
| O=C1/C(=C/Nc2ccc3c(c2)OCO3)CCc2ccccc21 |  | inconclusive: 25.1 µM [inhibitor, single point] |
| O=C(CSc1ccc(Cl)cc1)Nc1cccc(-c2nc3ccccc3[nH]2)c1 |  | inconclusive: 35.5 µM [inhibitor, single point] |
| CCOC(=O)c1nc(C)sc1-c1ccnn1S(=O)(=O)c1ccccc1C(F)(F)F |  | inconclusive: 5.01 µM [inhibitor, single point] |
| S=C(NCC1CCCCC1)Nc1ccc(Oc2ccccc2)cc1 |  | inconclusive: 11.2 µM [inhibitor, partial curve, poor fit] |
| CC(C)Cc1nnc(NC(=O)C2CCN(C(=O)c3ccc(Cl)cc3)CC2)s1 |  | inconclusive: 0.562 µM [inhibitor, full curve, poor fit] |
| O=C(COc1ccc2c3c(c(=O)oc2c1)CCCC3)N1CCN(c2ccccc2)CC1 |  | inconclusive: 5.62 µM [inhibitor, single point] |
